# Measurements as given in publication PMC4336329 (PLoS ONE, 2015).
# Hit rate of the full screen: of about 310,000 compounds, about 2,200 (0.71%) showed an effect of 50% or more. Effects have a minus sign here. The list shows a part of the results.
# Target: human ether-à-go-go-related gene (hERG) potassium channel (human, UniProt Q12809)
# Assay: primary screen, population patch clamp on CHO cells stably expressing hERG
# human ether-à-go-go-related gene (hERG) potassium channel, sequence (Q12809 whole entry, looked up): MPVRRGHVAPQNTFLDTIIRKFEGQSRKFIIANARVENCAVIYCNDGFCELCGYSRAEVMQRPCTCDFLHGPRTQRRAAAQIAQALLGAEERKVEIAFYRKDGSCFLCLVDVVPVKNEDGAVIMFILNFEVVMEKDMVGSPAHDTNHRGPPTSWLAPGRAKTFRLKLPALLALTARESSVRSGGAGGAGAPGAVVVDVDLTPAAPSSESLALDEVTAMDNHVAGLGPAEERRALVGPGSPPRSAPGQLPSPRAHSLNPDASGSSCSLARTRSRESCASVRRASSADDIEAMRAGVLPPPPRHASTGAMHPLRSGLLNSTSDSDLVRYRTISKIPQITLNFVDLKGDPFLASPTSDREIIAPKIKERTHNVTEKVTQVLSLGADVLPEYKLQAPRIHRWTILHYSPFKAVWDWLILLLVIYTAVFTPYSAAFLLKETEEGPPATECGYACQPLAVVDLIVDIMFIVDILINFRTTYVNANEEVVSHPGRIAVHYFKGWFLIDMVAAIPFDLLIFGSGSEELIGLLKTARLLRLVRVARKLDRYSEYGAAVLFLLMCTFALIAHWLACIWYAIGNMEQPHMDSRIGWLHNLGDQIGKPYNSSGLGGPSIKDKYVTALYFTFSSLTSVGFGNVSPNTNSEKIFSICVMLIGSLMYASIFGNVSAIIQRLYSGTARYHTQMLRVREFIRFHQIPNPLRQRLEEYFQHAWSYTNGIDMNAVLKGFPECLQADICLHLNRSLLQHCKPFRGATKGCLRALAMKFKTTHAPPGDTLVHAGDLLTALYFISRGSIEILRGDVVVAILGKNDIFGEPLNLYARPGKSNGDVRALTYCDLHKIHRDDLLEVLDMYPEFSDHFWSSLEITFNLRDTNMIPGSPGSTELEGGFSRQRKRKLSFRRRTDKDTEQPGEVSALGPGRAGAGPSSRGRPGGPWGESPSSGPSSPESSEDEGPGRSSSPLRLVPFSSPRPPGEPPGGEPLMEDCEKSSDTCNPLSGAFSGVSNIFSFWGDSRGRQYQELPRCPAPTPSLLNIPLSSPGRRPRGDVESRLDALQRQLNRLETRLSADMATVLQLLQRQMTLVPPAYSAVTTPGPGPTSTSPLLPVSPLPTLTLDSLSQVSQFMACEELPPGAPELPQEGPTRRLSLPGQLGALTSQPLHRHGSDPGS
row,SMILES,"hERG current change (%, negative = inhibition) at 1uM"
1,COc1ccc(NC(=O)c2sc3nc(C)nc(N4CCN(c5ccccn5)CC4)c3c2C)c(OC)c1,13.8%
2,O=C(CCCc1c[nH]c2ccccc12)N1CCCCCC1,1.37%
3,COc1ccc(OC)c(S(=O)(=O)Nc2ccccc2F)c1,0.0758%
4,CC1=NN(C(N)=S)C(=O)C1N=Nc1ccc(S(N)(=O)=O)cc1 (centres unmarked),14.9%
5,Cc1cc(C)cc(NCc2cc(=O)oc3cc(-c4ccccc4)c(O)cc23)c1,9.07%
6,COc1cc(CNc2ccc(N3CCOCC3)cc2)cc(Br)c1OC,-4.22%
7,O=c1c2ccccc2ncn1Cc1nc2ccccc2s1,9.43%
8,CCN(CC)S(=O)(=O)c1ccc(Cl)c(NC(=O)COC(=O)c2c(C)noc2C)c1,13.1%
9,O=C(/C=C/c1ccccc1)Nn1c(-c2cccs2)nc2ccccc2c1=O,0.79%
10,CCN(CC)CCCNC(=O)c1cc(-c2ccc(Cl)cc2)on1,-21.1%
11,O=C(Nc1ccc(Nc2ccccc2)cc1)N1CCOCC1,7.54%
12,CN(Cc1cn[nH]c1-c1cc2ccccc2o1)CC1CCOCC1,9.75%
13,CN(C)S(=O)(=O)c1ccc(N2CCCC2)c(C(=O)NCc2ccccc2)c1,8.6%
14,O=C(C1CCCN(Cc2ccc(Cl)cc2)C1)N1CCCCC1.O=C(O)C(=O)O (centres unmarked),-5.93%
15,c1ccc2[nH]c(CN3CCCCC3)nc2c1,2.98%
16,COc1ccc(C2=NS(=O)(=O)N(C)C(C(=O)N3CCc4ccccc4C3)=C2)cc1OC,5.23%
17,O=C(Oc1ccc2ccc(O)cc2c1)c1ccccc1Cl,16.6%
18,COC(=O)c1coc(-c2ccc(C)cc2)c1C(=O)OC,7.33%
19,Cc1[nH]c(C)c(S(=O)(=O)NCC(C)c2ccccc2)c1C(=O)N1CCCCC1 (centres unmarked),-0.169%
20,COc1ccc(NC(C)=O)cc1NC(C)C(=O)Nc1ccc(F)cc1 (centres unmarked),12.5%
21,COc1ccc(OC)c(S(=O)(=O)N2CCN(c3ccccn3)CC2)c1,7.33%
22,Cl.O=C(c1cc(F)c(F)c(F)c1F)N1CCN(Cc2ccc3c(c2)OCO3)CC1,9.54%

row,SMILES,"hERG current change (%, negative = inhibition) at 1uM"
1,COc1cc(CNCCO)cc(Cl)c1OCc1ccccc1Cl.Cl,6.13%
2,CCC(C)(C(=O)NC1CCCC1)N(C(=O)c1ccccn1)c1ccccc1 (centres unmarked),-3.01%
3,COc1ccc(-c2noc(-c3ccc(C)cc3)n2)cc1,21.6%
4,CCCCN(CC)CCCNC(=O)c1cc2c(=O)n(CC)c3ccccc3c2s1,-2.19%
5,CC(CCN1CCN(CCO)CC1)c1ccccc1 (centres unmarked),9.6%
6,CSc1nsc(SC)c1C(=O)NCCNS(=O)(=O)c1ccc(C)cc1,3.27%
7,O=C(O)CCC(=O)N1N=C(c2c(-c3ccccc3)c3cc(Cl)ccc3[nH]c2=O)CC1c1ccccc1 (centres unmarked),6.97%
8,CCc1ccccc1NC(=O)C1CCN(C(=O)N2CCOc3ccccc32)CC1,8.6%
9,Cc1ncc2c(c1OC(=O)c1ccc([N+](=O)[O-])cc1)COC(C)(C)OC2,-42%
10,COCCCNC(=S)NCCNc1nc2cc(C)cc(C)c2cc1C#N,7.95%
11,Cc1nc(C(=O)Nc2ccccc2Cl)cc2c1[nH]c1ccccc12,10.3%
12,CCCC(CCC(=O)Nc1cc([N+](=O)[O-])ccc1O)C(=O)O (centres unmarked),11.2%
13,O=C(CN(Cc1ccccc1)S(=O)(=O)c1ccc(Br)cc1)N/N=C/c1ccccc1C(=O)O,10.5%
14,COc1ccccc1NC(=O)c1sc2ncn(Cc3cccc(C)c3)c(=O)c2c1C,-0.2%
15,Cc1ccc(S(=O)(=O)N2CCN(Cc3nc4sc(C)c(C)c4c(=O)[nH]3)CC2)cc1,19.1%
16,Nc1c(C(=O)N2CCCC2)sc2nc3c(cc12)CCCCCC3,5.16%
17,CC(C)CCNC(=O)c1onc(CSc2ccccn2)c1C(=O)NCCC(C)C,11.1%
18,CSCC[C@H](NC(=O)c1cccs1)c1nnc2ccccn12,5.64%
19,O=C(CSc1nc2ccccc2c(=O)n1-c1ccc(Cl)cc1)c1ccco1,7.3%
20,Cc1onc(-c2c(Cl)cccc2Cl)c1NC(=O)NC1CCSC1 (centres unmarked),18.5%
21,O=C(NC1CCCCC1)C(c1ccccn1)N(C(=O)c1csnn1)C1CC1 (centres unmarked),12.3%
22,CCOc1cc(C(=S)N2CCOCC2)ccc1OS(=O)(=O)c1ccc(C)cc1,15.3%
